Experimental data reported in PubChem BioAssay AID686978 (National Center for Advancing Translational Sciences (NCATS), 2013).
Hit rate of the full screen: of about 420,000 compounds, about 64,000 (15%) were called active. Inconclusive means that the source gave no clear call. Such entries were picked first, then a sample of the others. Calls follow the shape of the dose curve; as a rule, active = well fitted inhibition curve with a large enough effect; inconclusive = small, poorly fitted or top-dose-only effect; inactive = flat fitted curve, though single readings scatter. Potencies of inconclusive entries are left out as doubtful fits.

assay: qHTS for Inhibitors of human tyrosyl-DNA phosphodiesterase 1 (TDP1): qHTS in cells in absence of CPT; settings: DT40 Tdp1-/- hTDP1 cells, no CPT, ATP luminescence, 48 h; activity change, negative = growth inhibition: at 46.2 µM (top of the series) unless noted; also: nearly all actives have a fitted effect of over 55% in size
How it was run: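 Seeded 400 DT40-hTDP1 cells/well (vehicle DMSO, no 20 nM CPT); pinned compounds; ≥48 hr at 37 °C; CellTiter-Glo luminescence as viability measure.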
% is scaled to controls: 0 for no effect and ±100 for the full control effect; potency is read from the fitted curve at half-maximal effect; tags tell the direction and shape of the fitted curve.

Compound | Potency | activity change, negative = growth inhibition
CC(C)(C)OC(=O)N1CCC(NC(=O)c2[nH]cnc2C(=O)Nc2ccon2)CC1 | inconclusive [inhibitor, single point] | –
Cc1ccc(C(=O)NCCONC(=O)c2ccc(C)cc2)cc1 | – | inactive: 4.84%
CC(C)C(OC(=O)c1cccs1)C(=O)NCc1ccccc1 (configuration not stated) | – | inactive: -7.09%
COc1ccc(OCc2nc(C#N)c(N3CCN(c4ccc(OC)cc4)CC3)o2)cc1 | inconclusive [inhibitor, single point] | –
Cn1c(NCc2ccccc2)cc(=O)n(C)c1=O | – | inactive: -2.91%
CCOC(=O)CN1C(=O)C(O)(c2c(C)[nH]c3ccccc23)c2ccccc21 (configuration not stated) | – | inactive: 11.9%
S=c1[nH]cc(Cc2ccccc2)s1 | inconclusive [inhibitor, single point] | –
CC(=O)c1ccc(OCC(O)CN2CCc3ccccc3C2)cc1 (configuration not stated) | inconclusive [inhibitor, partial curve] | –
COCCCNc1ccn2nc(-c3cc(OC)c(OC)c(OC)c3)cc2n1 | inconclusive [inhibitor, single point] | –
O=C(Nc1ccc(N2CCN(c3ccccc3)CC2)c(F)c1)C1CC1 | inconclusive [inhibitor, single point] | –
C[n+]1c2n(c3ccccc31)N=C(c1ccc(Cl)cc1)CS2 | active: 0.92 µM | –
Cc1ccc(SCC(=O)OCC(=O)N(CC(C)C)c2c(N)n(Cc3ccccc3)c(=O)[nH]c2=O)c(C)c1 | inconclusive [inhibitor, single point] | –
COCCC(=O)N1CCCC(N2CCN(c3ccc(F)cc3)CC2)C1 (configuration not stated) | – | inactive: -8.78%
CC1CCc2c(sc(NC(=O)Cc3ccccc3)c2C(=O)Nc2ccc(Cl)cc2)C1 (configuration not stated) | inconclusive [inhibitor, single point] | –
Nc1ccccc1SC1CC(=O)N(c2ccc3c(c2)OCCO3)C1=O (configuration not stated) | inconclusive [inhibitor, single point] | –
O=C(COC(=O)C1CC(=O)N(CCc2ccccc2)C1)c1ccc[nH]1 (configuration not stated) | – | inactive: -1.67%
COc1ccc([N+](=O)[O-])cc1N(CC(O)CN1C(=O)NC(C)(C)C1=O)S(=O)(=O)c1ccccc1 (configuration not stated) | – | inactive: 3.27%
COc1ccc(C(C)=O)cc1CSc1nnc(SCc2cc(C(C)=O)ccc2OC)s1 | inconclusive [inhibitor, single point] | –
COc1cc2c(NC3CCN(C)CC3)nc(N3CCCN(C)CC3)nc2cc1OCCCN(C)C | inconclusive [inhibitor, single point] | –
Cc1ccc(N2CCN(C(=O)c3nn(C)c4c3CS(=O)(=O)c3ccccc3-4)CC2)c(C)c1 | active: 20.6 µM | –
Cc1cc(C(F)(F)F)cc(NNC(=O)NC(=O)c2c(F)cccc2Cl)n1 | – | inactive: -13.5%
Cc1ccc(NC(=O)CN2C(=O)CNC2=O)cc1 | – | inactive: 2.06%
O=C(c1ccco1)N1CCC2(CC1)CN(c1ccccn1)C2 | inconclusive [inhibitor, partial curve, poor fit] | –
CCn1c(-c2cccc(OC)c2)nc2cc(NC(C)=O)cc(C(=O)N3CCC[C@H]3C(=O)OC)c21 | – | inactive: 4.87%

Compound | Potency | activity change, negative = growth inhibition
O=C(CSc1nc2nc3c(cc2c(=O)n1-c1ccccc1)CCCC3)Nc1ccccc1 | inconclusive [inhibitor, single point] | –
Cc1ccc(-c2ccc(CN3C(C)C(=O)N(Cc4cn(Cc5ccco5)nn4)CCS3(=O)=O)cc2)c(C)c1 (configuration not stated) | inconclusive [inhibitor, single point] | –
CC(=O)c1cc(C)ccc1OC(=O)c1ccco1 | – | inactive: -6.97%
O=[N+]([O-])c1cccc(COc2ccc(CN3CCCC3)cc2)c1 | inconclusive [inhibitor, single point] | –
O=C(C=Cc1cccs1)c1ccc(Cl)s1 | inconclusive [inhibitor, single point] | –
O=C(CSc1nc2ccccc2nc1N1CCCCC1)Nc1ccc(F)cc1 | inconclusive [inhibitor, single point] | –
COc1cc(/C=N/NC(=O)C2(O)c3ccccc3-c3ccccc32)ccc1O | – | inactive: 4.23%
Cc1nc2ccccc2nc1CN1CCOc2ccc(C3(O)CCN(c4ccccc4F)CC3)cc2C1 | inconclusive [inhibitor, partial curve] | –
CC(=O)Nc1ccc(NC(=O)c2oc3c(c2C)-c2nn(Cc4ccccc4Cl)cc2CC3)cc1 | active: 18.4 µM | –
Cc1ccc(C(=O)NNC(=O)C2CSC3(C)CCC(=O)N23)cc1 (configuration not stated) | – | inactive: 1.52%
COCCCNC(=O)CCc1c(C)c2cc3c(C)coc3cc2oc1=O | inconclusive [inhibitor, partial curve] | –
CC1CCCC(C)N1CC(O)COC1CCC(C(C)(C)C)CC1 (configuration not stated) | active: 20.6 µM | –
CCOC(=O)c1ccc(NC(=O)Cn2nc3c4ccccc4n(Cc4cccc(F)c4)cc-3c2=O)cc1 | inconclusive [inhibitor, single point] | –
COc1ccc2c(c1OC)C(=O)OC2n1c(O)c(N=NC(C)=O)c2ccccc21 (configuration not stated) | – | inactive: -22.2%
O=C(CCn1c(=O)c2sccc2n(Cc2ccccc2F)c1=O)NCc1ccc2c(c1)OCO2 | – | inactive: -1.81%
CCCOCc1ccc(O)c2ncccc12 | active: 0.58 µM | –
COc1ccccc1C(=O)NC(=O)COC(=O)c1cccc(OC(F)F)c1 | – | inactive: 16.1%
CCN(CC)S(=O)(=O)c1cccc(C(=O)Nc2cccc(C)c2)c1 | inconclusive [inhibitor, single point] | –
COc1cc(CN2CCCCC2C(=O)Nc2ccc(Oc3ccccc3)nc2)ccc1O (configuration not stated) | inconclusive [inhibitor, single point] | –
CC(=O)c1ccc(NC(=S)Nc2cccc3cnccc23)cc1 | inconclusive [inhibitor, single point] | –
COc1cccc(NC2=C(Cl)C(=O)OC2OC(=O)c2ccco2)c1 (configuration not stated) | active: 14.6 µM | –
Cc1ccccc1Nc1cc(C(=O)NCc2ccco2)c2ccccc2n1 | inconclusive [inhibitor, partial curve, poor fit] | –
Cc1cccc(NC(=O)Cn2nc(-c3ccccc3)c3cnc4ccccc4c32)c1 | – | inactive: -44.6%
